According to the supplement of paper PMC10338343:
± gives the standard deviation. Whole data set: some 3,700 sequences, median “pre-steady-state target cleavage rate” near 0.02, cut for the highest 2% near 0.23. This is a selection; strong and weak results do not stand in their true shares.

test system: MILI (PIWIL2) piRISC loaded with Kctd7 piRNA (26 nt); assay: pre-steady-state target cleavage rate (min^-1); MIWI and MILI are mouse PIWI proteins and EfPiwi is from a freshwater sponge; tags in brackets are library labels; higher = faster piRNA-guided slicing of the target; conditions: guide: Kctd7 piRNA 5'p-UGUUAAUCUCUCAGAGAAGGUGACAG; auxiliary factor: 500 nM mouse GTSF1
Protocol: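 Cleave-'n-Seq: a library of target RNAs (target site embedded in constant flanks, ACAGCATTCCGCGTTAGTGATATCCG... 5' flank; DNA-blocked outside the site) at 0.1 nM was incubated with 1 nM active mouse MILI or MIWI piRISC (synthetic 5'-monophosphorylated piRNA guide) with or without 500 nM mouse GTSF1 at 33 °C for 1 min to 16 h. Uncleaved targets were sequenced and normalised to non-target controls, and the pooled three trials were fitted to a burst-and-steady-state model to give the pre-steady-state cleavage rate (min^-1; k3 is constrained to at most 1e-4). Sequence is the target site only; target names encode pairing extent (gX:gY) and contiguous / 1-mismatch / 2-mismatch / bulge geometry. Fits with R² ≤ 0 are excluded.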

Sequence	pre-steady-state target cleavage rate
UAGUGAGUAACCUUCUCUGAGAGAUUAACA	0.136 ± 0.011
UAGUGAGACACCUUCUGUGAGAGAUUAACA	0.156 ± 0.014
UAGUGACUCACCUUCUCUGAGAGUAUUAACA	0.108 ± 0.0092
UAGUGACAGACGUUCUCUGAGAGAUUAAGA	0.0102 ± 0.0047
UAGUGUGUGACCUACUCUGAGAGAUUAACA	0.15 ± 0.014
UAGUGACACACCUUCUCGAGAGAUUAACA	0.0266 ± 0.011
UAGUGUGUCACCUUCUCUGAUGAGAUUAACA	0.0585 ± 0.02
UAGUCUGUGAGCUUCUCUGAGAGAUUAACA	0.119 ± 0.0055
UAGUCUGACAGCUUCUCUGAGAGAUUAACA	0.114 ± 0.0076
UAGUCUGUCACCUUCUCUGAGAGCAUUAACA	0.175 ± 0.013
UAGUGACACACCUACUCUGAGAGAUUAUGA	0.00594 ± 0.0034
UAGUGACAGACCUAUCUCUGAGAGAUUAACA	0.0833 ± 0.01
UAGUGACUCACCUUCUCUGAGAGAUUUAACA	0.202 ± 0.017
UAGUGUGUCACGUUCUCUGAGAGAAUAACA	0.0657 ± 0.018
UAGUCUGUCACCAUCUCUGAGAGUUUAACA	0.119 ± 0.021
UAGUGACACUCCUUCUCUGAGUGAUUAACA	0.00415 ± 0.0032
UAGUGACAGUGCUUAUCUGAGAGAUUAACA	0.0166 ± 0.005
UAGUCUGUCACCUUCUGUGUGAGAUUAACA	0.0325 ± 0.0037
UAGUGUGUCACCUUCUCUGAGAGAUUCAACA	0.219 ± 0.038
UAGUGAGUCUCCUUCUGUGAGAGAUUAACA	0.0996 ± 0.017
UAGUCUGUCACCUUCUCUGAGAAGAUUAACA	0.0626 ± 0.01
UAGUGACAGUCCUUCUCUGAGACAAUAACA	< 0.0001
UAGUGACAGUCCUUCUGUGAGAGAUUUACA	0.00912 ± 0.0026
UAGUGACACACCUUCACUGAGAGAUUAACA	0.13 ± 0.0096

Sequence	pre-steady-state target cleavage rate
UAGUCUGUCACGAACUCUGAGAGAUUAACA	0.0804 ± 0.0054
UAGUGACACACCUACUCUGAGAGAUUAUCA	0.0653 ± 0.015
UAGUGACUCACCUUCUCUGAGAGAUUCAACA	0.221 ± 0.035
UAGUGACACACCUUCUCUCACAGAUUAACA	0.0114 ± 0.0049
UAGUGUGUCACCUUCACUGAGAGUUUAACA	0.0686 ± 0.02
UAGUGAGUCUGCUUCUCUGAGAGAUUAACA	0.0821 ± 0.0062
UAGUGACACACCUUCUCUCAGAGAUAAACA	0.0174 ± 0.0075
UAGUGACAGACCUUCUCCGAGAGAUUAACA	0.0676 ± 0.021
UAGUCUGACACGUUCUCUGAGAGAUUAACA	0.167 ± 0.012
UAGUCACUCACCUUCUCUGAGAGAUAUUGA	0.00509 ± 0.0038
UAGUGACAGACCUUCUAUGAGAGAUUAACA	0.037 ± 0.015
UAGUGACACACCUUCACUCAGAGAUUAACA	0.0278 ± 0.0075
UAGUCUGUCACCUACUCUGAGAGUUUAACA	0.149 ± 0.024
UAGUGACAGUCGUUCUCUCAGAGAUUAACA	0.00831 ± 0.0022
UAGUGACAGUGGAACUCUGAGUCUUUAACA	0.109 ± 0.061
UAGUGACAGACCAUCUCUGAGAGAUUAAGA	0.00579 ± 0.0032
UAGUCUGUGACCUUCUCUGAGAGAUAAACA	0.0621 ± 0.0085
UAGUCUGAGACCUUCUCUGAGAGAUUAAGA	0.0455 ± 0.0084
UAGUGAGUCACCUACUGUGAGAGAUUAACA	0.108 ± 0.0097
UAGUCUGUCACCUUCUCUUAGAGAUUAACA	0.0866 ± 0.0084
UAGUGACAGUGCUUCUCUGUGAGAUUUACA	0.00788 ± 0.0032
UAGUGACAGACCUUCUGUGAGACAUUAACA	0.0225 ± 0.0086
UAGUCUGUCGACCUUCUCUGAGAGAUUAACA	0.0375 ± 0.011
UAGUGACUCACCUUCUCUGAGAGAUUAAAA	0.0677 ± 0.02

Sequence	pre-steady-state target cleavage rate
UAGUCUGUCACCUACUGUGAGAGAUUAACA	0.079 ± 0.0066
UAGUGACUCACCUUCUCUGAGAGACUAACA	0.112 ± 0.019
UAGUCUGUCACGUUCUCUGAGAGAUAAACA	0.0413 ± 0.0083
UAGUGACACACCUUGUCUGAGAGAUUAUCA	0.0156 ± 0.0081
UAGUGACAGACCUUCUCUGUGAGAUUAAGA	0.0069 ± 0.0047
UAGUGUGUCACCUUCUCUGAGAGAUAACA	0.0605 ± 0.02
UAGUGUGUCUCCUUCUCUGAGAGAUUUACA	0.0178 ± 0.0072
UAGUGACUCACCUUCACUGAGACAUUAACA	0.0588 ± 0.0084
UAGUCUGUCAGGAUCUCUGAGAGAUUAACA	0.0932 ± 0.0052
UAGUGAGUCACCUUCUCUGAGACAUUAACA	0.0977 ± 0.018
UAGUGACUCACCUACUCUGAGAGAUUAAGA	0.0496 ± 0.013
UAGUCUGUCACCUGUCUCUGAGAGAUUAACA	0.179 ± 0.0096
UAGUCUGUCACCUUCUCUGAGAAAUUAACA	0.143 ± 0.018
UAGUGACAGUGCUUCUCUGAGAGAUUAACC [g2:g19:cont:t1C]	0.0223 ± 0.0053
UAGUGAGUCUGCUUCUCUGAGAGAUUAUGA	0.00387 ± 0.0021
UAGUGACAGUGGUUCUGUGAGAGAUUAACA	0.00551 ± 0.0014
UAGUGUGUCACCUUCUCUGAGAAGAUUAACA	0.0498 ± 0.0089
UAGUGACAGACCUUCUCUGAGAGAUUAAGCA	0.0746 ± 0.022
UAGUGUGUCAGCUUCUCUGAGAGAAUAACA	0.112 ± 0.023
UAGUGAGACACCUUCUCUGAGAGAAUAACA	0.0568 ± 0.019
UAGUGACACACCAUCUCUGACAGAUUAACA	0.0227 ± 0.0066
UAGUGACAGACCUUCUCUGAGAGAUUAUGA	0.00603 ± 0.0045
UAGUCUGACACCUUCUCUGAGAGAUUAUCA	0.109 ± 0.014
UAGUGACAGUGGAAGAGACUGAGAUUCACA	< 0.0001

Sequence	pre-steady-state target cleavage rate
UAGUGACAGUGCUUCUCUGAGAGAUAAACA	0.00446 ± 0.0028
UAGUGAGUCACCUUCUCUGUGAGUUUAACA	0.0267 ± 0.007
UAGUGACUCACCUUGUCUGUGAGAUUAACA	0.0255 ± 0.0057
UAGUGACACACGUUCUCUGAGAGAUUUACA	0.0612 ± 0.01
UAGUGACAGUGGAUCUCUGUGAGAUUAACA	< 0.0001
UAGUGACAGUCCUUCUCUGAGAGGUUAACA	0.0707 ± 0.009
UAGUGAGUCAGGAUCUCUGAGAGAUUAACA	0.029 ± 0.0043
UAGUCUGUCACCUUCACUGAGAGAUAAACA	0.116 ± 0.024
UAGUGAGUCACCUUCUGUGACAGAUUAACA	0.0506 ± 0.012
UAGUGAGUCACCUUCUCUCAGAGAUUAUGA	0.0141 ± 0.0066
UAGUGUGUCCCUUCUCUGAGAGAUUAACA	0.153 ± 0.016
UAGUGUGUCAGCUUCUCUGAGAGAUUAUGA	0.0157 ± 0.0056
UAGUCUGUCACCUUGUCUGAGUGAUUAACA	0.00524 ± 0.0025
UAGUGACACACCUUCUCUGAGAGAUUACCA	0.0859 ± 0.016
UAGUGACAGUGGAAAUCUGAGAGAUUAACA	0.00342 ± 0.001
UAGUGACUCACCUUCACUGACAGAUUAACA	0.0378 ± 0.0055
UAGUGACUCACCUGCUCUGAGAGAUUAACA	0.134 ± 0.013
UAGUCUGUCACCUUGUCAGAGAGAUUAACA	0.0486 ± 0.0086
UAGUCUGUCACCAUCUCUGAGUGAUUAACA	0.00551 ± 0.0028
UAGUGUGUCUCCUUCUGUGAGAGAUUAACA	0.12 ± 0.014
UAGUGACAGACCUUCUCUGAGAAAUUAACA	0.0522 ± 0.015
UAGUCUGUCACCUUCUCUGAGAGAUUAACG [g2:g26:cont:t1G]	0.196 ± 0.011
UAGUGACAGUGCUUCACUGAGAGAUUAACA	0.0228 ± 0.0072
UAGUCUGUCACCUUCACUGAGAGAUUAUCA	0.118 ± 0.029

Sequence	pre-steady-state target cleavage rate
UAGUGACAGUCCUUCACUGAGAGAUUAACA	0.0713 ± 0.012
UAGUGACAGUGCUUCUCUGAGAGGAUUAACA	0.0129 ± 0.0041
UAGUGAGUCUACCUUCUCUGAGAGAUUAACA	0.0908 ± 0.013
UAGUGUGAUCACCUUCUCUGAGAGAUUAACA	0.24 ± 0.018
UAGUCUGUCACCUUCUCUGAGACGAUUAACA	0.0566 ± 0.0058
UAGUGACAGACCUUCUCUGAGAGACUAACA	0.0389 ± 0.011
UAGUGUGUCAGCUUCUCUGAGAGAUUAAGA	0.0667 ± 0.013
UAGUGUGUCACCUUCUGUGAGAGAUUAAGA	0.0204 ± 0.0087
UAGUGACAGACCUUCUCUGAGAGAUUUAACA	0.183 ± 0.018
UAGUGACACACCAACUCUGAGAGAUUAACA	0.054 ± 0.0049
UAGUGACUCACCUUCUCUGAAGAGAUUAACA	0.00273 ± 0.0024
UAGUCUGUCACGUUCUCUGAGAGAUUAUCA	0.0741 ± 0.0087
UAGUGACAGUGGUUCUCUGAGUGAUUAUCA	< 0.0001
UAGUGACAGUCGUACUCUGAGAGAUUAACA	0.0158 ± 0.0024
UAGUGACUCACGUUCUCUGAGAGAUUAUGA	0.00962 ± 0.0031
UAGUGAGUCACCUUCUCUGAGAGAGUUAACA	0.257 ± 0.044
UAGUGUGUCUCCUUCUCUGAGUGAUUAACA	0.00466 ± 0.003
UAGUGACACACCUUGAGUGAGAGAUUAACA	0.00938 ± 0.0042
UAGUGUGUCACCUUCACUGAGUGAUUAACA	0.00908 ± 0.004
UAGUGACAGUGGAAGUCUGAGAGAUAUUCA	< 0.0001
UAGUGACAGUCCUUCUCUGAGGAGAUUAACA	0.00431 ± 0.0026
UAGUGACUCAGCUACUCUGAGAGAUUAACA	0.0343 ± 0.0053
UAGUGACAGUGCUUCUCUGAGAGCUUAACA	0.0104 ± 0.0032
UAGUGAGUCACCUUCUCAGAGAGAUAAACA	0.0919 ± 0.025

Sequence	pre-steady-state target cleavage rate
UAGUGUGAGUCCUUCUCUGAGAGAUUAUGA	0.0046 ± 0.0039
UAGUGACACAACUUCUCUGAGAGAUUAACA	0.0327 ± 0.0051
UAGUGACUUACCUUCUCUGAGAGAUUAACA	0.0833 ± 0.0077
UAGUGACAGUGGAAGUCUGAGAGAGUUAACA	< 0.0001
UAGUGAGUCACCUUCACUGAGAGAAUAACA	0.0231 ± 0.0061
UAGUGACAGUGGUUCUCUGAGACAUUAACA	< 0.0001
UAGUGUCUCACGUUCUCUGAGAGAUUAACA	0.125 ± 0.012
UAGUGACUCACGUUCUCUGAGAGAAUAACA	0.0231 ± 0.0061
UAGUGACAGACCUUCUCUGAAAGAUUAACA	0.0466 ± 0.0079
UAGUGACUCACCUUCUGUGAGAGAUUUACA	0.0485 ± 0.009
UAGUGACAGUGCUUCUCUGGGAGAUUAACA	0.0267 ± 0.006
UAGUGACUCACCUUCACUGAGAGUUUAACA	0.0766 ± 0.021
UAGUGAGUCACCUUCUGUGAGAGAUUAACA	0.176 ± 0.011
UAGUGACUCACCUUCUCUGAGAGUAUAACA	0.0908 ± 0.015
UAGUGAGUUCACCUUCUCUGAGAGAUUAACA	0.184 ± 0.014
UAGUGACUCACCUUGUCUGAGAGAUUAUCA	0.0189 ± 0.011
UAGUGACUCACCUUCUCACAGAGAUUAACA	0.00519 ± 0.0034
UAGUGACAGUGGAACUCUGUCAGAUUAACA	< 0.0001
UAGUGACUCACCUUCUCUGAGAGAUUAAUA	0.0948 ± 0.022
UAGUCUGUCACCUUCUCAGAGAGAUAAACA	0.118 ± 0.026
UAGUCUGUCACCUUCUCUAGAGAUUAACA	0.0294 ± 0.01
UAGUGUGUGACCUUCUCUGACAGAUUAACA	0.0306 ± 0.0081
UAGUGACAGACCUUGACUGAGAGAUUAACA	0.0118 ± 0.0054
UAGUGACUCACCUUGUCUGAGAGAUUAACA	0.0996 ± 0.017
